In the supplement of paper PMC3334620:
Whole data set: some 33,000 sequences, median “E-score (-0.5 to 0.5)” near -0.032, cut for the highest 2% near 0.36. Some of the results follow.

These sequences were tested against T1, Sko1 (UniProt Q02100) (assay: PBM E-score (8-mer binding enrichment) (E-score (-0.5 to 0.5)); higher = stronger / more preferred TF binding; most listed sequences are background and not binding sites). Details: protein concentration: 200 nM; construct: GST-full length.
T1 sequence: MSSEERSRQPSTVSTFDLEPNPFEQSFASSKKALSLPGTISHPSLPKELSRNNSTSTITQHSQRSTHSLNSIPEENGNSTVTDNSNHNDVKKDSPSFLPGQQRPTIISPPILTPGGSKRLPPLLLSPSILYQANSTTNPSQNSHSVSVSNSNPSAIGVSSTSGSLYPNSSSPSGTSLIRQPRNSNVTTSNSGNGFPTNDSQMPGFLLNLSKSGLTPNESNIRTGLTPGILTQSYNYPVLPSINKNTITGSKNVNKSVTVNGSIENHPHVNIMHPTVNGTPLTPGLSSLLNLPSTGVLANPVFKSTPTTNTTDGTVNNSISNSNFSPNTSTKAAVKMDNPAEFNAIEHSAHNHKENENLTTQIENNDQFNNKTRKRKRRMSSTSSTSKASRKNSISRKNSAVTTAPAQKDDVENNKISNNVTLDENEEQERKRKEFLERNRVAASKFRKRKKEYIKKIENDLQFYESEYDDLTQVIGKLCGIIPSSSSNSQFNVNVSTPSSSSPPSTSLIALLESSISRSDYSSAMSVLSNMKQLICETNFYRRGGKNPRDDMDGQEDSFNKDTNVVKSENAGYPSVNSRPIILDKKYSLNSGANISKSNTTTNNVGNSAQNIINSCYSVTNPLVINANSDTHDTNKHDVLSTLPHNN
Protocol: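 Universal 'all 10-mer' protein binding microarrays (Agilent AMADID 015681) probed with GST-tagged S. cerevisiae TFs (full-length or DBD) made by in vitro transcription/translation (PURExpress), about 100-200 nM. Bound TF was detected with fluorescent anti-GST. Each ungapped 8-mer (which stands for itself and its reverse complement) is scored by the PBM enrichment score (E-score), a modified Wilcoxon-Mann-Whitney statistic from -0.5 to +0.5, computed with the Universal PBM Analysis Suite. Scale: above 0.35 generally sequence-specific binding.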

Sequence | PBM E-score
CAAACGTA | 0.416
ACTGACCT | -0.16
GGAAAACA | -0.0739
GATTGGGC | -0.1
CTCTATCA | -0.134
CAGTACGG | -0.113
ATGTTTTG | 0.109
AGGCTACC | -0.183
CGCTATAC | 0.0594
GCGTCAGC | 0.209
GCTTGCCC | -0.218
AAATTGCA | 0.0228
AGTTGTCC | -0.0106
GTCTACGA | 0.104
ATTGAGTC | 0.021
CGGAACGA | 0.0776
GTCTAACA | -0.0034
GCGCGATA | 0.147
AGGACAAA | 0.0912
TGCAGAAA | 0.206
CATCTATC | -0.0653
TCGGGACA | -0.0513
AGTAGGTG | -0.0905
AAACCGCA | -0.121

Sequence | PBM E-score
GACCCTGA | -0.189
CACGTTCA | 0.171
CCCGGTTC | -0.287
AAACCCGT | 0.0806
CCGGCTTA | -0.268
GATTCAGA | 0.0385
CCCTACAG | -0.328
ACGCTTCA | -0.056
ATCTTCAC | 0.059
ACATATGT | 0.29
AGCTCCCC | -0.221
ACAGCGGC | -0.238
CGATCTGA | -0.0245
ACGGTGTC | -0.138
CTCTCCAG | -0.425
GACCGCTC | -0.21
GCGATCAC | -0.121
AAAAATAT | 0.247
GGCTCAAA | -0.233
CCAACCTC | -0.00411
ACTCGCCC | -0.31
CTTGGCGA | -0.289
AAGAGCTA | 0.0618
AGACCAAC | -0.231

Sequence | PBM E-score
CAAGGATG | -0.0796
CTACATAA | 0.194
GTTGCAAC | 0.254
CATAGGCC | -0.145
CCTGGAGC | -0.0971
ACTATTAC | 0.283
TATAACCA | 0.154
CTAAAGTC | -0.217
ACGGCCGG | -0.203
AATCTTGC | 0.0785
TAAGCGAA | 0.0172
ACATTTGA | 0.224
GTCAGCAA | 0.196
ACCATCGA | -0.0293
AGCCATTA | 0.194
TGACATCA | 0.466
ACACGTTC | 0.214
AAGAAACC | -0.0881
TAATTAGA | 0.208
AATGCCGG | -0.119
TAACCGTA | 0.125
GGACCCAA | -0.267
GCTATTCA | 0.0226
ATCCAGGG | -0.258

Sequence | PBM E-score
AGTCCGGG | -0.393
CTGCCTAC | 0.0288
CGTCGCCA | 0.0172
GCCAGCTA | -0.0417
CGGGTGAA | -0.0747
GGCCGGAC | -0.213
CCCGCGCG | -0.0752
GAGAGAAA | 0.1
GACTTTGC | -0.117
AGTATCTC | 0.0412
AAAACATA | 0.201
GACGGATC | -0.0868
AATACGTG | 0.458
ATTGATTG | 0.0764
ATAAATTG | 0.123
GCTTTAAC | 0.0982
CTAGGATA | -0.0362
ACGCTATG | 0.182
CCATTCCC | -0.327
CGTGAACG | 0.0332
AAAACGTA | 0.449
CGTTCACC | 0.0821
